The whole screen tested about 44,000 compounds, of which about 340 (0.77%) were called active. This list was built around the results that the source calls inconclusive (neither active nor inactive); the mix of calls is not that of the screen. Calls follow the shape of the dose curve; as a rule, active = well fitted inhibition curve with a large enough effect; inconclusive = small, poorly fitted or top-dose-only effect; inactive = flat fitted curve, though single readings scatter. No potency is given beside an inconclusive call; the fits are too rough.
test: Acumen qHTS Assay for Inhibitors of the mTORC1 Signaling Pathway in MEF (Tsc2-/-, p53-/-) Cells: Sytravon; conditions: phospho-rpS6 immunofluorescence/PI, 24 h; series mostly up to 38.3 µM; also: nearly all actives have a fitted effect of over 50% in size
Outline: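 Compounds act on Tsc2-/-, p53-/- fibroblasts carrying an empty vector for 24 h before fixation and dual staining for phospho-S6 and DNA (propidium iodide). Values are percentages of cells above a rapamycin-defined pS6/PI threshold.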
Potency is read from the fitted curve at half-maximal effect; tags tell the direction and shape of the fitted curve.

| Structure (SMILES) | Potency |
| --- | --- |
| CCC(CC)C(=O)Nc1c(C(=O)N2CCN(c3ccccc3F)CC2)oc2ccccc12 | inactive |
| CC(=O)c1ccc(NC(=O)CSc2cn(CC(=O)N3CCCCC3)c3ccccc23)cc1 | inactive |
| Cc1cccc(NC(=O)Cn2nc(-c3ccc(Cl)cc3)c3ccccc3c2=O)c1 | inconclusive [falling, single point] |
| O=C(Nc1cccc(-c2nc3ncccc3o2)c1)c1ccc(-c2cccc(Cl)c2Cl)o1 | inconclusive [falling, partial curve, poor fit] |
| CCOC(=O)c1ccc(N2C(=O)c3n[nH]c(-c4cccs4)c3C2c2ccc(O)c(OC)c2)cc1 (configuration not stated) | inconclusive [falling, single point] |
| COc1ccc(-n2c(=O)c3ccccc3n(Cc3ccc(F)cc3Cl)c2=O)cc1OC | inconclusive [activator, partial curve, poor fit] |
| CCCCC(CC)CNC(=O)c1ccc(Cn2c(=O)[nH]c3cc(OC)c(OC)cc3c2=O)cc1 (configuration not stated) | inconclusive [falling, partial curve] |
| CCCSc1ncc(Cl)c(C(=O)Nc2ccc(S(=O)(=O)N3CCCCC3C)cc2)n1 (configuration not stated) | inactive |
| CC(Oc1ccccc1)C(=O)Nc1ccccc1C(=O)OCc1cc(=O)n2nc(C3CC3)sc2n1 (configuration not stated) | inactive |
| O=C(CSc1nc2c([nH]c3ccccc32)c(=O)n1-c1cccc(Cl)c1)N1CCOCC1 | inconclusive [falling, single point] |
| CCCCCC(=O)Nc1ccc(NC(=O)c2cc3ccccc3o2)c(OC)c1 | inconclusive [falling, single point] |
| O=C(Cn1c(=O)c2ccccc2n(CC(=O)Nc2ccc(F)cc2)c1=O)NCCc1ccccc1 | inconclusive [falling, single point] |
| CCc1cccc(NC(=O)c2nc(-c3ccncc3)no2)c1 | inconclusive [falling, partial curve, poor fit] |
| COc1cc2cc(CNc3ccc(C)cc3)c(=O)n(CC(=O)Nc3ccc(C(C)C)cc3)c2cc1OC | inconclusive [falling, single point] |
| COc1ccc(-c2nc(CCNC(=O)c3cccs3)cs2)cc1OC | inconclusive [falling, full curve, poor fit] |
| Cc1ncc(COC(=O)C(C)C)c2cc(C(=O)Nc3ccccc3C(F)(F)F)c(=O)oc12 | inconclusive [falling, partial curve, poor fit] |
| CCN1CCN(CCCNC(=O)c2cc3c(s2)-c2c(C)cccc2OC3)CC1 | inconclusive [falling, single point] |
| COc1ccccc1CCNC(=O)CCc1c(C)c2cc3c(C)coc3cc2oc1=O | inconclusive [falling, single point] |
| Cc1ccccc1Cn1c(Oc2ccccc2F)nc2c1c(=O)n(C)c(=O)n2C | inactive |
| CCc1cnc2c(c1SCC(=O)NCc1ccccc1)c(=O)n(C)c(=O)n2C | inconclusive [falling, full curve, poor fit] |
| Cc1ccc(-c2cnc(NCc3ccc(C(F)(F)F)cc3)n2C)cc1 | inconclusive [falling, single point] |

| Structure (SMILES) | Potency |
| --- | --- |
| O=S(=O)(c1ccc(Br)cc1)c1nc(-c2cccs2)oc1SCc1ccccc1F | inconclusive [falling, partial curve, poor fit] |
| Cc1ccc(CNC(=O)Cn2cc(S(=O)(=O)Cc3ccccc3F)c3ccccc32)cc1 | inconclusive [falling, partial curve] |
| CC(C)(C)c1ccc(NC(=O)CSc2nnc3scc(-c4ccccc4)n23)cc1 | inconclusive [falling, single point] |
| COc1ccccc1N(CC(=O)Nc1ccc(C)c(Cl)c1)S(=O)(=O)c1ccc(C)cc1 | inconclusive [falling, partial curve, poor fit] |
| COCCCn1c(=N)c(S(=O)(=O)c2ccccc2)cc2c(=O)n3cc(C)ccc3nc21 | inconclusive [falling, partial curve, poor fit] |
| CC1=Nc2cc(C(=O)NC3CCCC3)ccc2Sc2ccc(C)cc21 | inconclusive [falling, full curve] |
| CC(=O)c1ccc(NC(=O)CC2Nc3cccc4cccc(c34)NC2=O)cc1 (configuration not stated) | inconclusive [falling, single point] |
| CC(C)CCNC(=O)Nc1ccc2c(c1)N(C)C(=O)c1ccccc1S2 | inconclusive [falling, partial curve, poor fit] |
| COC(=O)CS(=O)(=O)c1nc2ccccc2nc1N1CCCCC1 | inconclusive [falling, single point] |
| COc1ccc(-c2[nH]nc3nc(-c4cc(OC)c(OC)c(OC)c4)cc(C(=O)O)c23)cc1 | active: 16.5 µM |
| COc1ccc(N2CCN(C(=O)CCc3c(C)nc4cc(-c5ccc(Cl)cc5)nn4c3C)CC2)cc1 | inactive |
| COc1cc(-c2nc3ncccn3c2Nc2ccc(C)cc2C)ccc1O | active: 14.7 µM |
| CCOC(=O)c1ccc(N2C(=O)c3n[nH]c(-c4cccs4)c3C2c2ccc(C(C)(C)C)cc2)cc1 (configuration not stated) | inactive |
| COc1cccc(-c2ccc3c(N)c(C(=O)c4ccc(Cl)cc4)sc3n2)c1 | inconclusive [falling, single point] |
| Cc1ccc(NC(=O)c2c(C)oc3ccc(O)c(CN4CCCCCC4)c23)c(C)c1 | inconclusive [falling, single point] |
| COc1ccc2cc(-c3nc4ccc(C(=O)O)cc4[nH]3)c(=O)oc2c1 | inactive |
| Cc1ccc(NC(=O)CSc2nc3n[nH]c(C)c3c(=N)n2-c2cccc(C)c2)cc1 | inactive |
| Cc1cc(C)cc(OCC(=O)Nc2ccc(-c3nc4ccccc4o3)cc2)c1 | inconclusive [activator, partial curve, poor fit] |
| COc1ccc(NC(=O)c2c(NCc3ccc(C)o3)sc3c2CCC(C)C3)c(OC)c1 (configuration not stated) | inconclusive [falling, single point] |
| CCC(C(=O)N1CCN(c2ccccc2)CC1)n1nc(C)n2c(cc3sccc32)c1=O (configuration not stated) | inconclusive [falling, partial curve, poor fit] |
| COc1ccc(C)cc1NC(=O)c1cc(S(=O)(=O)NC2CCCCCC2)ccc1F | inconclusive [falling, partial curve, poor fit] |

| Structure (SMILES) | Potency |
| --- | --- |
| CN(C)CCNC(=O)c1ccc(-n2c(-c3ccccc3)cc3c2CCCC3)cc1 | inconclusive [falling, single point] |
| Cc1oc2ccc(O)c(CN(C)Cc3ccccc3)c2c1C(=O)Nc1cccc(C(F)(F)F)c1 | inconclusive [falling, single point] |
| COc1cccc(-n2c(SCc3ccccc3C)nc3c([nH]c4ccccc43)c2=O)c1 | inconclusive [falling, single point] |
| COc1ccc(Cl)cc1NC(=O)Cn1c(=O)n(CCC(=O)NCc2ccc3c(c2)OCO3)c(=O)c2ccccc21 | inconclusive [falling, partial curve, poor fit] |
| Cn1cc(C(=O)N2CCN(c3cccc(C(F)(F)F)c3)CC2)c2c3ccccc3n(C)c2c1=O | inconclusive [falling, single point] |
| O=C(Nc1ccc(F)c(Cl)c1)c1cc(S(=O)(=O)N2CCc3ccccc3C2)ccc1F | inconclusive [falling, partial curve, poor fit] |
| CCN(CC)CCNC(=O)c1ccc2c(c1)NC(=O)C(CS(=O)(=O)Cc1cccc(Br)c1)N2 (configuration not stated) | inactive |
| Cn1c(=O)c2c(nc(NCc3ccccc3)n2Cc2ccc(Cl)c(Cl)c2)n(C)c1=O | inactive |
| CCCSc1nc2c(c(=O)[nH]1)C(c1ccc(O)c(OCC)c1)CC(=O)N2 (configuration not stated) | inconclusive [falling, single point] |
| COc1cccc(NC(=O)c2oc3ccc(S(=O)(=O)N4CCC5(CC4)OCCO5)cc3c2C)c1 | inconclusive [falling, partial curve, poor fit] |
| COc1ccccc1NC(=O)CSc1nc(-c2cccc(Cl)c2)nc2c1Cc1c(CO)cnc(C)c1O2 | inactive |
| CCCCN(C)CC(O)Cn1cc(/C=C/C(=O)c2ccc(OCC)cc2)c2ccccc21 (configuration not stated) | inconclusive [falling, single point] |
| Cc1ccc(CNC(=O)c2ccc(NC(=O)c3nsc4ccccc34)cc2)cc1 | inactive |
| COc1ccccc1CNC(=O)C(=O)NCC(c1cccnc1)N1CCN(c2ccc(F)cc2)CC1 (configuration not stated) | inconclusive [falling, partial curve, poor fit] |
| O=C(CN(c1cccc(C(F)(F)F)c1)S(=O)(=O)c1ccccc1)Nc1cccc(Cl)c1 | inconclusive [falling, single point] |
| O=C(Nc1ccc2nc(SCC(=O)N3CCCC3)sc2c1)c1cccc(F)c1 | inactive |
| CSc1ccc(C2c3[nH]c4ccccc4c3CCN2C(=O)CCC2CCCC2)cc1 (configuration not stated) | inconclusive [falling, partial curve, poor fit] |
| COC(=O)c1c(-c2cccs2)csc1NC(=O)COc1ccccc1 | inactive |
| CSc1ccc(/C=C/c2nc3ccccc3n2S(=O)(=O)c2ccc(F)c(C)c2)cc1 | inactive |
| Cc1cc(NC(=O)c2ccco2)cc(-c2nc3cc(Cl)ccc3o2)c1O | active: 11.7 µM |

From PubChem BioAssay AID493208 (National Center for Advancing Translational Sciences (NCATS), 2011)
